According to publication PMC4336329 (PLoS ONE, 2015):
Screen size: about 310,000 compounds; about 2,200 (0.71%) showed an effect of 50% or more. The effect is printed as a negative number. The list shows a part of the results.

Each compound was assayed against human ether-à-go-go-related gene (hERG) potassium channel (human, UniProt Q12809) (assay: primary screen, population patch clamp on CHO cells stably expressing hERG).
human ether-à-go-go-related gene (hERG) potassium channel, sequence (Q12809 whole entry, looked up): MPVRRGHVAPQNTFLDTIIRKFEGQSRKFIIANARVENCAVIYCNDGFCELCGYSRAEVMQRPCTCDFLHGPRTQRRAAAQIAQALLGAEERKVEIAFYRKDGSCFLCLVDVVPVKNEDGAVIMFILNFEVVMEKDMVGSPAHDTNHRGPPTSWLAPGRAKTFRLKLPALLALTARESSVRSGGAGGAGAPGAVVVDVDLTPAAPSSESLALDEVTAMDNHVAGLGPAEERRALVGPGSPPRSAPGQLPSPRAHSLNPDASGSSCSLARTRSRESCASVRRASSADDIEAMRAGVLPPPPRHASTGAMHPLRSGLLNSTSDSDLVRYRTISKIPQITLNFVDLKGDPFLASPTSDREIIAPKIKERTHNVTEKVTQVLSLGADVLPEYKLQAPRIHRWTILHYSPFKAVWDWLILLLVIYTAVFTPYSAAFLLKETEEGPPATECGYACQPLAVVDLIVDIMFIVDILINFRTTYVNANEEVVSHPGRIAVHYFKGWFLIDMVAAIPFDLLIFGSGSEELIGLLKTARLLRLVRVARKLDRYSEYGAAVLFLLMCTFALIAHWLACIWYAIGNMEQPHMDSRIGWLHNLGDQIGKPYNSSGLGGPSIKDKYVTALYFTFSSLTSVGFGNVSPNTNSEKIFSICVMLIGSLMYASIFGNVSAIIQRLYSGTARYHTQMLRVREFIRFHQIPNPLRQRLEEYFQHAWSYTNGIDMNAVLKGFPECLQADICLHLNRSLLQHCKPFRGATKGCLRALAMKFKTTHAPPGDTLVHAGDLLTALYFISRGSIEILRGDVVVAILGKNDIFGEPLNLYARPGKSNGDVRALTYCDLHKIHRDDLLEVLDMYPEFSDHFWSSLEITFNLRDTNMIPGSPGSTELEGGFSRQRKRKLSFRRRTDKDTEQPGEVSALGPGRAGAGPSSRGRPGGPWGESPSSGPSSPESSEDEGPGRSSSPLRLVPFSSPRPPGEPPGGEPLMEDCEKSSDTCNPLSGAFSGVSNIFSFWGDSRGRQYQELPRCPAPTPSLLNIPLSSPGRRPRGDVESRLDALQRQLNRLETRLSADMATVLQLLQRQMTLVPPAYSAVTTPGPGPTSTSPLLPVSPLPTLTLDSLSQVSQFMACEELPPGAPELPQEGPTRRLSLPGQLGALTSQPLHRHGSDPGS
In the case of `Cc1cc(NC2CCCC2)n2nc(C)c(-c3ccccc3)c2n1`, the “hERG current change (%, negative = inhibition) at 1uM” value is reported as 14.9%.
For `CCc1nnc(-n2nc(C)cc2-c2ccccc2)n1N.Cl`, the “hERG current change (%, negative = inhibition) at 1uM” value was -5.64%.
In the case of `O=C1[C@H]2[C@H](C=CC[C@H]2C(=O)N2CCOCC2)CCN1Cc1ccc(Cl)c(Cl)c1`, the “hERG current change (%, negative = inhibition) at 1uM” value is reported as 5.05%.
In the case of `CCN(CC)CCN(C)Cc1ccc(Br)cc1`, the “hERG current change (%, negative = inhibition) at 1uM” value is reported as -13.2%.
`Cc1cccc(NC(=O)CSc2nc(NS(=O)(=O)c3ccccc3)cc(=O)[nH]2)c1` was tested, and the “hERG current change (%, negative = inhibition) at 1uM” value was 15.9%.
For `Cc1cc(C(=O)N/N=C/c2c[nH]c3ccccc23)cs1`, the “hERG current change (%, negative = inhibition) at 1uM” value was 10.2%.
For `CC(CCc1ccccc1)NC(=O)Cc1ccc(Br)cc1` (stereo not drawn), the “hERG current change (%, negative = inhibition) at 1uM” value was 10.3%.
`O=C(NC1CCCCC1)C(c1ccco1)N(C(=O)c1csnn1)c1cccc(Cl)c1` (stereo not drawn) was tested, and the “hERG current change (%, negative = inhibition) at 1uM” value was 19%.
`CCN(CCCNC(=O)CN(C)S(=O)(=O)c1ccc2c(c1)CCC(=O)N2)c1cccc(C)c1` was tested, and the “hERG current change (%, negative = inhibition) at 1uM” value was 5.48%.
`O=C(Nc1c(F)cc(F)cc1F)c1cccn(Cc2ccccc2)c1=O` was tested, and the “hERG current change (%, negative = inhibition) at 1uM” value was -3.17%.
`CCOc1ccc2[nH]c3nc(SCC(=O)NC4CCCC4)nnc3c2c1` was tested, and the “hERG current change (%, negative = inhibition) at 1uM” value was 10.5%.
For `C=CCNC(=S)NNC(=O)CSc1nc2ccccc2s1`, the “hERG current change (%, negative = inhibition) at 1uM” value was -10.6%.
In the case of `O=C(c1ccncc1)N1CCN(S(=O)(=O)c2ccc(F)cc2)CC1`, the “hERG current change (%, negative = inhibition) at 1uM” value is reported as 20%.
For `Cc1ccc(C)c(-n2c(-c3cccnc3)n[nH]c2=S)c1`, the “hERG current change (%, negative = inhibition) at 1uM” value was 18.2%.
`Cc1nc2ccccc2n1Cc1ccccc1` was tested, and the “hERG current change (%, negative = inhibition) at 1uM” value was 11.3%.
`CCCc1nc2ccccc2c(=O)n1NC(=O)c1c(O)c2ccccc2[nH]c1=O` was tested, and the “hERG current change (%, negative = inhibition) at 1uM” value was 10.1%.
In the case of `COCCC(=O)N1CCC(Oc2ccc(C(=O)N3CCC[C@H]3CO)cc2)CC1`, the “hERG current change (%, negative = inhibition) at 1uM” value is reported as 27.7%.
For `CCc1n(CC(O)COC2CCCCC2)c2ccccc2[n+]1C.[I-]` (stereo not drawn), the “hERG current change (%, negative = inhibition) at 1uM” value was 12.5%.
`Cc1cccc(NC(=O)CN2C(=O)N/C(=C/c3cc(C)n(C(C)C)c3C)C2=O)c1` was tested, and the “hERG current change (%, negative = inhibition) at 1uM” value was 4.65%.
For `COc1ccc2cc(-c3ccn[nH]3)ccc2c1`, the “hERG current change (%, negative = inhibition) at 1uM” value was 15.7%.
In the case of `C=CCn1c(=O)c2ccccc2n2c(SCc3nc4ccccc4s3)nnc12`, the “hERG current change (%, negative = inhibition) at 1uM” value is reported as 8.48%.
For `COc1ccc2c(c1OC)C(=O)N(C(C)C(=O)O)C2=O` (stereo not drawn), the “hERG current change (%, negative = inhibition) at 1uM” value was 12.2%.
For `CCOC(=O)N1CCN(C2=C(NS(=O)(=O)c3ccc(NC(C)=O)cc3)C(=O)c3ccccc3C2=O)CC1`, the “hERG current change (%, negative = inhibition) at 1uM” value was 20%.
For `CCN1CCN(c2nc3ccccc3nc2C(C#N)C(=O)OCc2ccccc2)CC1` (stereo not drawn), the “hERG current change (%, negative = inhibition) at 1uM” value was -3.43%.
For `CCN1C(=O)C(O)(CC(=O)c2ccccn2)c2ccccc21` (stereo not drawn), the “hERG current change (%, negative = inhibition) at 1uM” value was 10.3%.
With `O=C(c1ccc(Cl)c(S(=O)(=O)N2CCCCCC2)c1)N1CCN(c2ccc(O)cc2)CC1` the “hERG current change (%, negative = inhibition) at 1uM” value was -1.7%.
In the case of `O=c1cc(-c2ccccc2)nc(SCc2ccccc2)[nH]1`, the “hERG current change (%, negative = inhibition) at 1uM” value is reported as 5.52%.
With `CC(C)CCn1c(Oc2ccc(Cl)cc2)nc2c1c(=O)n(C)c(=O)n2C` the “hERG current change (%, negative = inhibition) at 1uM” value was 0.337%.
With `COc1cccc(C(=O)C2CCCN(Cc3cccn3-c3cccnc3)C2)c1` (stereo not drawn) the “hERG current change (%, negative = inhibition) at 1uM” value was -6.89%.
`C=CCNC(=O)NC(=O)COC(=O)c1cccnc1SC` was tested, and the “hERG current change (%, negative = inhibition) at 1uM” value was 2.52%.
With `CCCNC(=O)c1c(N)n(-c2ccc(S(N)(=O)=O)cc2)c2nc3ccccc3nc12` the “hERG current change (%, negative = inhibition) at 1uM” value was 7.38%.
`COc1cc(-c2cc(-c3ccccc3)nc(SCC(=O)O)c2C#N)cc(OC)c1OC` was tested, and the “hERG current change (%, negative = inhibition) at 1uM” value was 29.3%.
With `O=C(Nc1oc2ccccc2c(=O)c1-c1ccc(Cl)cc1)c1ccco1` the “hERG current change (%, negative = inhibition) at 1uM” value was 19.3%.
In the case of `Cc1cc(C)c(S(=O)(=O)N2CCCC(C(=O)N3CCCC3)C2)c(C)c1` (stereo not drawn), the “hERG current change (%, negative = inhibition) at 1uM” value is reported as -7.05%.
`C/C=C(\C)C(=O)OC(C)(C)[C@@H]1Cc2cc3ccc(=O)oc3cc2O1` was tested, and the “hERG current change (%, negative = inhibition) at 1uM” value was 7.1%.
`Cc1cc(Cl)cc(C)c1OCCn1ccnc1.Cl` was tested, and the “hERG current change (%, negative = inhibition) at 1uM” value was 5.35%.
For `Cc1ccc2nc(SCCC(=O)O)cc(C)c2c1`, the “hERG current change (%, negative = inhibition) at 1uM” value was 9.13%.
In the case of `O=C(O)CCN1C(=O)/C(=C\c2cccc(OCc3ccccc3)c2)SC1=S`, the “hERG current change (%, negative = inhibition) at 1uM” value is reported as 9.47%.
In the case of `Cc1nn(C2CCCCC2)c(N)c1-c1ccccc1`, the “hERG current change (%, negative = inhibition) at 1uM” value is reported as 8.17%.
With `O=C(CN1C(=O)c2cccc3cccc1c23)N1CCc2ccccc2C1` the “hERG current change (%, negative = inhibition) at 1uM” value was 4.01%.
In the case of `Cc1oc2c(c1C(=O)NC(Cc1c[nH]c3ccccc13)C(=O)O)CCCC2` (stereo not drawn), the “hERG current change (%, negative = inhibition) at 1uM” value is reported as 10.2%.
With `COC(=O)c1cc(S(=O)(=O)Nc2ccsc2C(=O)OC)oc1C` the “hERG current change (%, negative = inhibition) at 1uM” value was 14%.
For `S=C1SCN(Cc2cccnc2)CN1Cc1ccccc1`, the “hERG current change (%, negative = inhibition) at 1uM” value was -0.777%.
`CCC(C(=O)OCC(=O)NC(=O)c1ccccc1)c1ccccc1` (stereo not drawn) was tested, and the “hERG current change (%, negative = inhibition) at 1uM” value was 23.4%.
For `O=C1NC(=O)C(c2cn(-c3ccccc3)nc2-c2ccc(F)cc2)N1` (stereo not drawn), the “hERG current change (%, negative = inhibition) at 1uM” value was 7.05%.
